Results published in PubChem BioAssay AID1745853 (National Center for Advancing Translational Sciences (NCATS), 2022).
Some of the results follow. The main result of the screen is listed elsewhere. These columns were measured beside it and carry no call.

Columns and labels:
Experiment in all cases: Primary Screen for Target Class Profiling of Small Molecule Inhibitors of Methyltransferases
[1] = target: Glycine N-methyltransferase (Homo sapiens) (UniProt Q14749); conditions: purified enzyme, MTase-Glo SAH luminescence; measured here: GNMT inhibition; at 40 µM; stronger effect = lower value
In short: (§1)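 Each enzyme was reacted with SAM and its substrate, with compounds tested once at 40 uM; SAH formed was read by MTase-Glo luminescence.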

[2] = target: Guanidinoacetate N-methyltransferase (Homo sapiens) (UniProt Q14353); conditions: purified enzyme, MTase-Glo SAH luminescence; measured here: GAMT inhibition; at 40 µM; stronger effect = lower value
In short: as §1

[3] = target: Histamine N-methyltransferase (Homo sapiens) (UniProt P50135); conditions: purified enzyme, MTase-Glo SAH luminescence; measured here: HNMT inhibition; at 40 µM; stronger effect = lower value
In short: as §1

[4] = target: Nicotinamide N-methyltransferase (Homo sapiens) (UniProt P40261); conditions: purified enzyme, MTase-Glo SAH luminescence; measured here: NNMT inhibition; at 40 µM; stronger effect = lower value
In short: as §1

[5] = target: Phenylethanolamine N-methyltransferase (Homo sapiens) (UniProt P11086); conditions: purified enzyme, MTase-Glo SAH luminescence; measured here: PNMT inhibition; at 40 µM; stronger effect = lower value
In short: as §1
% is set by controls: 0 for no effect and ±100 for the full control effect.

Compound	activity change, negative = inhibition [1] [%]	activity change, negative = inhibition [2] [%]	activity change, negative = inhibition [3] [%]	activity change, negative = inhibition [4] [%]	activity change, negative = inhibition [5] [%]
CC(=O)Nc1c2n(c3ccc(F)cc13)CC(C)(C(=O)NC1CCCC1)N(Cc1ccco1)C2=O (stereo not given)	5.95	4.53	1.08	1.47	-3.02
COC(=O)[C@@H](O)[C@H]1[C@@]2(C)CC3(O)[C@@H](C(=O)[C@H]2O)[C@]24O[C@]25CC(=O)O[C@@H](c2ccoc2)[C@]5(C)CCC4[C@]13C (stereo not given in full)	0	1.97	7.44	-9.82	0.155
Cc1cc2c(cc3n2CC(C)(C(=O)NC2CCCCC2)N(Cc2cccc(F)c2)C3=O)o1 (stereo not given)	0.094	4.38	0.916	-6.17	-0.998
Cc1ccc(C2(O)CCN(C(=O)c3cnn4cc(CCO)cnc34)CC2)nc1	-3.54	0.944	1.89	0.787	2.54
O=S(=O)(Nc1cccc(Br)c1)c1ccc2[nH]c3c(c2c1)CCCC3	-5.89	-0.019	-1.76	-13	-3.74
CC(C)C1CCC(CO)=CC1/C=C(\CO)C(=O)OCC1(O)CCC(C(C)C)C2C=C(C(=O)O)COC(=O)C21 (stereo not given)	0	-4.09	0.644	-17.4	-0.394
COc1ccc(CCNS(=O)(=O)c2ccc3[nH]c4c(c3c2)CCCC4)cc1OC	-20.2	4.09	-14.3	-9.66	-0.804
FC(F)(F)c1ccc(/C=C/c2nc(COc3ccc(CCCCn4ccnn4)cc3)co2)cc1	-2.16	-11.8	4.04	-26.3	-7.03
COc1ccc2c(c1)c(NC(C)=O)c1n2CC(C)(C(=O)NC2CCCCC2)N(C2CCCC2)C1=O (stereo not given)	8.36	0.939	10.6	13.5	4.61
CCC1(O)CC2c3cc(OC)c(OC)cc3CCN2CC1CC(C)C (stereo not given)	-8.74	-3	-2.28	-16	-11.5
COc1ccccc1CNC(=O)CC1COCCN1C(=O)c1cnccn1 (stereo not given)	-0.253	-1.29	-2.2	-1.7	-1.53
O=C1c2ccccc2C(=O)c2c(NCCc3ccc(O)cc3)ccc(NCCc3ccc(O)cc3)c21	-42.9	-35.6	-81.9	-39.7	-41.3
O=C1CN(Cc2ccc(F)cc2Cl)S(=O)(=O)c2ccccc2N1Cc1cccc(F)c1	-1.34	3.19	-2.38	-4.3	-5.7
Cc1ccc(C(=O)COC(=O)C(Cc2c[nH]c3ccccc23)NC(=O)c2ccco2)cc1 (stereo not given)	6.56	1.11	10.7	-1.32	4.25
CC1CCCCC1NC(=O)C1(C)Cn2c(cc3occc32)C(=O)N1c1ccc(Cl)cc1 (stereo not given)	-2.72	1.19	1.43	3.73	3.46
CCOCCCN1C(=O)c2cc3c(OC)ccc(OC)c3n2CC1(C)C(=O)NC1CCCCCC1 (stereo not given)	1.96	1.52	5.22	-0.307	-1.25
